# In publication PMC4336329 (PLoS ONE, 2015):
# Screen size: about 310,000 compounds; about 2,200 (0.71%) showed an effect of 50% or more. The effect is printed as a negative number. The list shows a part of the results.
# Biological target: human ether-à-go-go-related gene (hERG) potassium channel (human, UniProt Q12809)
# Assay: primary screen, population patch clamp on CHO cells stably expressing hERG
# Sequence of human ether-à-go-go-related gene (hERG) potassium channel (Q12809 whole entry, looked up): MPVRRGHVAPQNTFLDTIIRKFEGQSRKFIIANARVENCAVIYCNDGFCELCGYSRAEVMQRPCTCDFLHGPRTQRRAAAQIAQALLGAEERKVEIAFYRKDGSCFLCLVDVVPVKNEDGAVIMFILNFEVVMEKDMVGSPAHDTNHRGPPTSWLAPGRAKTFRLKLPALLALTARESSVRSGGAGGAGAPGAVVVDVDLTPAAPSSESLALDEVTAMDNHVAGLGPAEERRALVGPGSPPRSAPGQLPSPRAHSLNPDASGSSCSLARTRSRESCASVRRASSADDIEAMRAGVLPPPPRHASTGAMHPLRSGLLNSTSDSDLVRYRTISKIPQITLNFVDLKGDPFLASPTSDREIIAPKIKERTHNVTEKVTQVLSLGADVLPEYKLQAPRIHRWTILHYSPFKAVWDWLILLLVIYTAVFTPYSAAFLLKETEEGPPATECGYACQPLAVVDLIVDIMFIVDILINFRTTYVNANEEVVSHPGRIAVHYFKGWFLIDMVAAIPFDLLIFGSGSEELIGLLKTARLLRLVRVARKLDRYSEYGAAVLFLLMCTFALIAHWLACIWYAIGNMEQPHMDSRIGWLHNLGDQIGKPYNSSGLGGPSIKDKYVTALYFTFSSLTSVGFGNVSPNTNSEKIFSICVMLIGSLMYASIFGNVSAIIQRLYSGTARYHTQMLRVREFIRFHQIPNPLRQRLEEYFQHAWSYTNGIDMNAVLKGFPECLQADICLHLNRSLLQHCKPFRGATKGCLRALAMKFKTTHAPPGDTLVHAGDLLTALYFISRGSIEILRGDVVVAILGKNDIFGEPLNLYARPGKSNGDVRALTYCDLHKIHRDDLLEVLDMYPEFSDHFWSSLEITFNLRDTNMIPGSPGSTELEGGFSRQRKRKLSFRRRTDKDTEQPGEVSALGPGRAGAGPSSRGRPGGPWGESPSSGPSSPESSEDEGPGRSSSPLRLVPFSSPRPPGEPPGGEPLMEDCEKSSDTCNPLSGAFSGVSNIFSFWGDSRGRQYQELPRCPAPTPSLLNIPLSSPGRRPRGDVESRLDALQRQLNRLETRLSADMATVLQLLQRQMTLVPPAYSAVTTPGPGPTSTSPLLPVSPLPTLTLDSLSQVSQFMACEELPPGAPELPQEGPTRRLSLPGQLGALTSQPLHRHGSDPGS
row,SMILES,"hERG current change (%, negative = inhibition) at 1uM"
1,CC1(c2ccc3ccccc3c2)NC(=O)N(CC(=O)Nc2cccc(S(=O)(=O)N3CCOCC3)c2)C1=O (centres unmarked),14.4%
2,COCCn1ccc2c(OCC(=O)Nc3cc(OC)ccc3OC)cccc2c1=O,1.32%
3,O=C(N[C@H]1CP(=O)(Oc2ccccc2)O[C@H](COCc2ccccc2)[C@H]1O)C(Cl)(Cl)Cl (some centres unmarked),16.3%
4,O=C(Nc1cccc(C(F)(F)F)c1)c1c(O)c2ccccc2[nH]c1=O,11.4%
5,C=CCNC(=S)N/N=C/c1cn(C)c2ccccc12,14.9%
6,CCCC(=O)NCC(c1cccs1)S(=O)(=O)c1ccc(Cl)cc1 (centres unmarked),7.07%
7,Cc1ccc(N2C(=O)CSCC2=O)cc1,-5.17%
8,Nc1ccc(C(=O)OCC(=O)NC2CC2)cc1[N+](=O)[O-],10.4%
9,CCOC(=O)C1CCN(C(=O)CSc2c3c(nc4ccccc24)CCC3)CC1,5.16%
10,CCc1nnc(NC(=O)c2cccc(S(=O)(=O)N(C)c3ccccc3)c2)s1,18.8%
11,Cn1c(CO)cnc1S(=O)(=O)Cc1c(Cl)cccc1Cl,5.51%
12,O=C(Nc1ccc(Cl)cc1)N(Cc1cccs1)Cc1cccs1,-2.54%
13,CN(C)C(=O)c1ccc(NC(=O)c2cccc(S(=O)(=O)N3CCCc4ccccc43)c2)cc1,6.04%
14,Cc1cc(NC(=O)c2ccc(COc3ccc(Cl)c(C)c3)o2)no1,8.14%
15,CCc1ccc(CNC(=O)c2ccc3nc(C4CCCCC4)oc3c2)nc1,11.3%
16,COc1ccc(C(=O)Oc2cc(N)n(S(=O)(=O)c3ccccc3)n2)cc1,1.48%
17,COc1ccc(C)cc1S(=O)(=O)Nc1ccc2c(c1)OCO2,8.95%
18,COc1cc(C#Cc2c(C=O)n(C)c3ccccc23)cc(OC)c1,16.2%
19,Cc1cc(C)n(CC(=O)N/N=C/c2cccs2)n1,1.86%
20,Cc1c(Cl)cccc1NC(=O)Cn1cnc(S(=O)(=O)N2CCCC2)c1,16.5%
21,Cc1cc(C)c(NC(=O)C2=COCCO2)c(C)c1,6.63%
22,CCOc1ccc(/C=N/NC(=O)c2cc3c(OC)cc(OC)cc3[nH]2)cc1OC,14.3%
23,CCOc1ccc(S(=O)(=O)N2CCOCC2)cc1NC(=O)CN1C(=O)NC(C)(c2ccccc2)C1=O (centres unmarked),4.38%

row,SMILES,"hERG current change (%, negative = inhibition) at 1uM"
1,CN1CCN(C(=O)C2=C[C@@H](c3ccccc3)C[C@@H](OCCCCO)O2)CC1,7.49%
2,CC1CCCC(NC(=O)C2CCN(S(=O)(=O)N3CCOCC3)CC2)C1C (centres unmarked),1.56%
3,CC(C)OC(=O)CSc1nc(N2CCOCC2)c2c(c1C#N)CC(C)(C)OC2,1.24%
4,Cl.OC(CN1CCCCC1)Cn1c(C(F)(F)F)nc2ccccc21 (centres unmarked),11.6%
5,O=C(CC(Nc1ccc(Cl)cc1Cl)C(=O)O)c1ccccc1 (centres unmarked),16.7%
6,CCCCC1=CC2=C(c3ccco3)C(=O)C(C)(OC(=O)c3ccc(OC)cc3)C(=O)C2=CN1CCCOC(C)C (centres unmarked),10.9%
7,COc1ccc(S(=O)(=O)N2CCC(C(=O)NC(C)CCc3ccccc3)CC2)cc1 (centres unmarked),11.1%
8,Cc1ccc(N2CC(C(=O)Nc3ccccc3C(=O)NC3CCCCC3)CC2=O)cc1C (centres unmarked),8.23%
9,CCN(CC)S(=O)(=O)c1cc(NC(=O)CSc2nnc(N)s2)ccc1C,10.9%
10,Cc1cc(C)cc(NS(=O)(=O)c2c(C(=O)N3CCCCCC3)c(C)n(C)c2C)c1,10.4%
11,COc1ccc(CN2CCN(CCCc3ccccc3)C(CCO)C2)c(OC)c1 (centres unmarked),-39.7%
12,COc1ccc(C(=O)NCc2ccccc2OC)c(OC)c1,0.756%
13,COc1cc(OC)c(C2SCCCS2)cc1OC,11.1%
14,O=C(CCCOc1ccc(Cl)cc1Cl)NCc1ccccn1,6.21%
15,Cn1c(CCN2CCCCC2)nc2cc(NC(=O)C3CCCCC3)ccc21,-25.9%
16,CN(CC(=O)NCC1CCCO1)S(=O)(=O)c1ccc(Br)cc1 (centres unmarked),4.17%
17,Cc1ccc(SCC(=O)OCC(=O)N(C)CC(=O)Nc2ccc(F)cc2)cc1,1.19%
18,Cc1nc2ccccn2c1C(=O)NN=C1CCN(C)CC1,13.6%
19,COC(=O)c1sc2nc3c(cc2c1N)CCCC3,13.7%
20,Cc1cc(=O)c(C(=O)Nc2cccc(C(=O)NC3CC3)c2)nn1-c1ccccc1Cl,2.21%
21,C=CCNC(=O)Nc1cc(Cl)ccc1OC,13.3%
22,CCN(Cc1nc(-c2ccc(Cl)cc2)no1)CC1CCCO1 (centres unmarked),-8.78%
23,O=C(NNC(=S)Nc1ccccc1C(F)(F)F)c1ccc(Br)o1,7.31%

row,SMILES,"hERG current change (%, negative = inhibition) at 1uM"
1,COC(=O)c1nc(N)sc1-c1ccccc1,9.7%
2,CCn1ccc(C(=O)NC2C(=O)N3C(C(=O)O)=C(C)CSC23)n1 (centres unmarked),5.82%
3,Cc1ccc(NC(=O)c2noc3c2CCCCC3)cc1C,-1.11%
4,CCOc1ccc(/C(O)=C2/C(=O)C(=O)N(CCCN3CCOCC3)C2c2ccc(C)cc2)cc1C (centres unmarked),21.2%
5,O=C(O)c1ncsc1-c1ccccc1,5.87%
6,CN(C)c1ccc(C=Nc2ccc(N(C)C)cc2)cc1,2.42%
7,CCOc1cc(C)c(Cl)cc1S(=O)(=O)N(CC)CC,8.55%
8,CCCNC(=O)Cn1c(=O)/c(=C\c2ccc(-c3cccc([N+](=O)[O-])c3)o2)s/c1=C\C(=O)C(C)(C)C,10.5%
9,O=C(CN(Cc1ccccc1F)S(=O)(=O)c1ccc(Cl)cc1)NCCCO,-2.78%
10,Cc1c(OC(C)C(=O)NCCN2CCOCC2)ccc2c3c(c(=O)oc12)CCCC3 (centres unmarked),6.74%
11,COc1ccc(Oc2cccc(Cl)c2CNC(=O)CCC(=O)O)cc1,5.82%
12,CCOc1cc(-c2conc2N)cc(OCC)c1OCC,-7.78%
13,CCOC(=O)/C=C1\Nc2ccccc2SC1=O,-3.13%
14,CCOCCCNC(=O)/C(C#N)=C/c1ccc(Cl)c([N+](=O)[O-])c1,7.63%
15,Cc1oc2c(C)c3oc(=O)c(CCC(=O)NCCCn4ccnc4)c(C)c3cc2c1C,-3.28%
16,CCCOc1cc(N(CC)CC)ccc1/C=C(/C#N)c1nc2ccc(C)cc2[nH]1,11.6%
17,CCCc1cc(=O)[nH]c(SCCOc2ccc(OCC)cc2)n1,11.7%
18,Cc1ccc2c(cnn2C(=O)CCC(=O)N2CCCCC2)c1,8.66%
19,Cc1ccc(C(=O)N/C(=C/c2ccc(N(C)C)cc2)C(=O)NCC2CCCO2)cc1 (centres unmarked),15.3%
20,Cc1ccc(C(=O)NC(N(C)C)C(Cl)(Cl)Cl)cc1 (centres unmarked),1.94%
21,COc1ccc(S(=O)(=O)N2CCC(C(=O)NCC(c3cccs3)N(C)C)CC2)cc1 (centres unmarked),-0.883%
22,CCCCc1ncc(CN2CCC(n3nccc3NC(=O)c3ccccc3Cl)CC2)[nH]1,5.37%
23,COCC(=O)Nc1nc(-c2ccc(-c3ccccc3)cc2)cs1,15.1%

row,SMILES,"hERG current change (%, negative = inhibition) at 1uM"
1,CC(C)(C)n1cc(S(=O)(=O)c2ccccc2)[nH]c1=O,14.3%
2,COc1ccc([N+](=O)[O-])cc1N(CC(O)CN1CCOCC1)S(=O)(=O)c1ccccc1 (centres unmarked),16.2%
3,COc1ccc(C2CC(c3cccs3)=Nc3ccccc3S2)cc1OC (centres unmarked),6.82%
4,Cl.OC(c1ccc(F)cc1)C(c1ccccc1)N1CCOCC1 (centres unmarked),11.4%
5,COC(=O)c1oc2ccc(Br)cc2c1NC(C)=O,15.2%
6,N#Cc1cc2c([nH]c1=S)CCCCCC2,14.1%
7,COc1ccc(N2C(=O)C3C(c4ccc(OC)cc4O)NC(Cc4ccccc4)(C(=O)O)C3C2=O)cc1 (centres unmarked),6.55%
8,N#Cc1c(N2CCOCC2)nsc1-c1ccc(C(F)(F)F)cc1,7.94%
9,O=C(CSc1nc(C2CC2)n(-c2ccccc2)n1)NCc1ccco1,-3.27%
10,COc1ccc(OC)c(NC(=O)CCNS(=O)(=O)c2cccs2)c1,9.2%
11,Cc1cccc(C(C)C)c1NC(=O)CN1C(=O)NC2(CCc3ccccc32)C1=O (centres unmarked),21.1%
12,Cc1ccc(S(=O)(=O)n2cc(-c3ccccc3)c3ccccc32)cc1,21.7%
13,Cc1ccccc1NCC(=O)Nc1cc(S(=O)(=O)N2CCCCC2)ccc1C,6.71%
14,Cc1cnc(C(=O)N2CCN(S(=O)(=O)c3ccc4ccccc4c3)CC2)cn1,12.3%
15,C=CCn1c2ccccc2c(=O)c2cc(C#Cc3ccccn3)ccc21,5.13%
16,O=c1nc(Nc2ccccc2)sc2ccc([N+](=O)[O-])cc12,4.43%
17,CC(C)(C)c1ccc(C(=O)NCCCNC(=O)c2cccnc2)cc1,15.2%
18,CCOc1ccc(CC(=O)NNC(=O)/C=C/C(=O)O)cc1,10.1%
19,C[C@H](NC(=O)OCc1ccccc1)c1nnc([C@H](C)NC(=O)OCc2ccccc2)o1,-3.77%
20,COC(=O)CN(n1cnnc1)S(=O)(=O)c1ccccc1Cl,-3.69%
